From PubChem BioAssay AID445 (National Center for Advancing Translational Sciences (NCATS), 2006)
The campaign covered roughly 110,000 compounds. About 40 (0.04%) were called active. The shares of active, inactive and inconclusive entries below differ from those in the screen. Calls follow the shape of the dose curve; as a rule, active = well fitted curve in the direction sought with a large enough effect in the signal ratio (not every such curve was filed as active); inconclusive = small, poorly fitted or top-dose-only effect, or a change in a side signal; inactive = flat fitted curve, though single readings scatter; the % refers to the signal ratio. Where the call is inconclusive, the potency comes from a doubtful curve fit.

Experiment: IkB Signaling;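 as to IkBa stabilization activation: 0% = basal untreated cells and 100% = reference inhibitor full response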
Details: ABC-DLBCL IkBa-CBG/CBR dual luciferase ratio (green luciferase fused to IkBa over red control in OCI-Ly3 lymphoma cells), 4 h; IkBa stabilization activation: at 57.1 µM (top of the series), scaled: untreated 0%, proteasome inhibitor 100% unless noted
How it was run: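 In this assay, an IκBα–CBG68 fusion accumulates when IKK-driven degradation is blocked; native CBR normalizes for cell number. OCI-Ly3 cells were treated 4 h with compound and doxycycline, then green and red light read after Chroma-Glo addition.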
Potency is read from the fitted curve at half-maximal effect.

Structure (SMILES)	IkBa stabilization activation	Potency
Cc1cc(S(=O)(=O)NCC(c2ccc(N(C)C)cc2)N2CCOCC2)ccc1F (configuration not stated)	inconclusive: 0.868% [signal inhibitor]	–
CCn1nc(C)c2c(-c3ccccc3)cc(=O)n(C(C)C(=O)NCc3ccc(C)cc3)c21 (configuration not stated)	inconclusive: 4.54% [signal inhibitor]	–
CC(=O)c1ccc(NC(=O)c2nc3ccccc3n(C)c2=O)cc1	inactive: -1.76%	–
Cc1ccc(CN(C(=O)COc2ccc(Cl)cc2Cl)C2CCS(=O)(=O)C2)o1 (configuration not stated)	inconclusive: 11.7% [signal inhibitor]	–
O=c1cnc2cncnc2n1Cc1ccc(F)cc1	inconclusive: 11.1% [signal activator] [at 11.4 µM, scaled: untreated 0%, proteasome inhibitor 100%]	–
CC(C)(C)c1ccccc1OCCCCCNCCO	inconclusive: 1.22% [signal inhibitor]	–
Cc1ccc(C)c(Nc2nc3nonc3nc2Nc2cccc(C)c2C)c1	inconclusive: -2.17% [signal inhibitor]	–
CCc1ccccc1NC(=O)C(C)n1nc(-c2ccc(C)c(C)c2)ccc1=O (configuration not stated)	inactive: 1.72%	–
O=C(C1CCN(S(=O)(=O)Cc2ccccc2)CC1)N1CCN(c2ccccc2F)CC1	inconclusive: 3% [signal inhibitor]	–
CC(=O)C(C)Oc1ccc2c3c(c(=O)oc2c1)CCCCC3 (configuration not stated)	inactive: 0.986%	–
CCOC(=O)c1[nH]c(C)c(C(=O)Nc2ccc(Cl)cc2)c1C	–	inconclusive: 39.8 µM [signal activator, single point]
COc1cc2nc(Nc3ccc(F)cc3)nc(N)c2cc1OC	inconclusive: -1.25% [signal inhibitor]	–
COC(=O)c1ccc(Cn2nnc3sc4c(c3c2=O)CCCC4)cc1	inconclusive: 11.8% [signal inhibitor]	–
CCOC(=O)c1cccc(NC(=O)C(Cc2ccccc2)NS(=O)(=O)c2cccc3nsnc23)c1 (configuration not stated)	inconclusive: -1.76% [signal inhibitor]	–
C/C=C/C=C/C=O	–	inconclusive: 31.6 µM [rising, partial curve]
O=C(c1cc2ccccc2o1)N1CCCCCC1	inactive: 2.54%	–
COc1ccc(N(C(=O)COc2ccccc2OC)S(=O)(=O)c2ccc(Cl)cc2)cc1	inconclusive: 7.12% [signal inhibitor]	–
O=C(c1ccccc1)n1nc(-c2ccco2)nc1NCc1ccccc1Cl	inconclusive: 0.101% [signal inhibitor]	–
c1c2c(cc3sc(N4CCCCC4)nc13)OCO2	inconclusive: 16.4% [signal inhibitor]	–
Cc1nc2sc(C(c3cccs3)N3CCN(C(=O)c4ccco4)CC3)c(O)n2n1 (configuration not stated)	–	inconclusive: 20 µM [rising, single point]
O=C(Nc1cccc(C(F)(F)F)c1)Nc1nnc(N2CCCCC2)s1	inconclusive: 0.59% [signal inhibitor]	–
O=C(CNC(=O)C1CCCCC1)NCCCO	inactive: 1.17%	–
COc1ccc(S(=O)(=O)Nc2cccc(-c3ccc(N4CCCC4)nn3)c2)cc1OC	inconclusive: 2.2% [signal inhibitor]	–

Structure (SMILES)	IkBa stabilization activation	Potency
N#Cc1c(Nc2cccc(F)c2)sc(C(=O)c2ccc(Cl)cc2)c1N	–	inconclusive: 20 µM [signal inhibitor]
COc1ccc(-c2nc3sc(CCNS(=O)(=O)c4ccc(F)c(C)c4)c(C)n3n2)cc1	inconclusive: 2.69% [signal inhibitor]	–
COc1ccccc1CNC(=O)CN1C(=O)CCn2nc(-c3ccccc3)cc21	inconclusive: 0.737% [signal inhibitor]	–
O=c1[nH]c(=O)n(Cc2ccccc2)c2nc(-c3ccco3)cc(C(F)(F)F)c12	inactive: 1.11%	–
COc1ccc(OCCSc2nc3ccccc3n2CC(=O)N2CCOCC2)cc1	inconclusive: -0.706% [signal inhibitor]	–
CCOc1ccc(CNC(=O)C2CCN(C(=O)c3sccc3-n3cccc3)CC2)cc1	inconclusive: 1.47% [signal inhibitor]	–
Cc1ccc(S(=O)(=O)N2CCOCC2)cc1C(=O)Nc1ccc(-c2cn3ccsc3n2)cc1	inconclusive: 6.1% [signal inhibitor]	–
CCC1CCCCN1C(=O)Cn1c(C(=O)OC)cc2ccsc21 (configuration not stated)	inactive: -0.208%	–
O=c1c2ccccc2nnn1CSc1ccc2c(c1)OCCO2	inconclusive: 8.04% [signal inhibitor]	–
CCOC(=O)c1c(C)[nH]c(C)c1S(=O)(=O)NCC(=O)N1CCN(c2cc(Cl)ccc2C)CC1	inconclusive: 3.15% [signal inhibitor]	–
Cc1cc([N+](=O)[O-])c(C)c(Br)c1C	inactive: 0.111% [at 11.4 µM, scaled: untreated 0%, proteasome inhibitor 100%]	–
CC(=O)c1ccc(NC(=O)COc2ccccc2-c2nc(-c3ccccc3)no2)cc1	inactive: -2.41%	–
COCc1cc(C)nc2sc3c(c12)NC(c1ccccc1C(=O)O)N(c1ccc(OC)cc1)C3=O (configuration not stated)	inconclusive: -0.219% [signal inhibitor]	–
O=C(c1ccc2ccccc2c1)N1CCN(c2ccc(O)cc2)CC1	inactive: 1.15%	–
Cc1ccc(C)c(NC(=O)c2nnn(CC(=O)Nc3cccc(C)c3C)c2N)c1	inconclusive: -1.59% [signal inhibitor]	–
Cc1ccc(S(=O)(=O)N2CCOCC2)cc1C(=O)OCC(=O)N1CCc2ccccc2C1	inconclusive: 2.08% [signal inhibitor]	–
O=c1cc(CN2CCN(S(=O)(=O)c3ccccc3)CC2)nc2sc(-c3ccccc3Cl)nn12	inconclusive: 1.03% [signal inhibitor]	–
O=C(CS(=O)(=O)c1nc(-c2ccc(Cl)cc2)cn1-c1ccccc1)Nc1ccc(F)cc1F	–	inconclusive: 15.8 µM [signal inhibitor]
CC(C)(C)OC(=O)N1CC=C2C(C#N)=C(N)C(C#N)(C#N)C(c3cccs3)C2C1 (configuration not stated)	inconclusive: 12.2% [signal inhibitor]	–
Cn1c(=O)n(CCc2ccccc2)c(=O)c2c1nc1n2CCCN1CCc1ccccc1	inconclusive: -4.9% [signal inhibitor]	–
CCCN(C(=O)c1sc2nc3n(c(=O)c2c1C)CCCC3)c1ccccc1C	inactive: 1.78%	–
COc1ccc(-c2cc(C(F)(F)F)nc(SCCC(=O)Nc3cccc(O)c3)n2)cc1	–	inconclusive: 39.8 µM [rising, single point]
CCOc1ccc(CCNC(=O)c2sc3ncccc3c2-n2c(C)ccc2C)cc1	inconclusive: 7.93% [signal inhibitor]	–

Structure (SMILES)	IkBa stabilization activation	Potency
COc1ccc(NC(=O)Cn2cc(C(=O)C3CCCCC3)c3ccccc32)cc1	inconclusive: -0.107% [signal inhibitor]	–
Cc1cccc(NC(=O)CSc2nnc(-c3ccccc3)n2N)c1C	inactive: 1.67%	–
CCN1CCN(c2c(Cl)cccc2NC(=O)c2ccco2)CC1	inactive: -3.74%	–
CC(C)Oc1ccc(C(=O)N2CC(=O)Nc3ccc(F)cc3C2c2ccc(F)cc2)cc1 (configuration not stated)	inconclusive: -0.0236% [signal inhibitor]	–
O=C1c2oc3ccc(Br)cc3c(=O)c2C(c2cccnc2)N1Cc1ccco1 (configuration not stated)	inactive: -2.69%	–
O=C(CSc1nc(-c2ccccc2)nc2c1CCCC2)c1ccc(Cl)cc1	inactive: -1.14%	–
COc1ccc(Cn2ccc3nc(C)c(C(=O)N4CCN(c5cc(C)ccc5C)CC4)cc3c2=O)cc1	inconclusive: -2.13% [signal inhibitor]	–
FC(F)(F)c1ccccc1-c1cc(NCc2cccnc2)ncn1	inactive: 2.02% [at 11.4 µM, scaled: untreated 0%, proteasome inhibitor 100%]	–
CCc1cccc(C)c1NC(=O)C(CC)n1ncn2c(cc3cc(C)ccc32)c1=O (configuration not stated)	inconclusive: 4% [signal inhibitor]	–
COc1ccccc1N1CC(O)=C(c2nc3ccccc3c(=O)[nH]2)C1=N	inconclusive: 5.49% [signal inhibitor]	–
COCCn1c(=O)c(-c2ccc(Cl)cc2)nc2cnc(OC)nc21	inactive: 0.64% [at 11.4 µM, scaled: untreated 0%, proteasome inhibitor 100%]	–
Cc1ccc(S(=O)(=O)c2nc(S(=O)(=O)c3ccc(C)cc3)c(NC(C)C)s2)cc1	inconclusive: 0.349% [signal inhibitor]	–
Cc1cc2n(n1)CCC(=O)N2Cc1ccc(C(=O)Nc2ccc(Br)c(C)c2)cc1	inconclusive: -0.832% [signal inhibitor]	–
COc1ccccc1-n1c(CNc2c(C)cccc2C)nnc1SCC(=O)N1CCOCC1	inconclusive: 15.5% [signal inhibitor]	–
COC(=O)c1c(NC(=O)COc2c(C)ccc(C)c2C)sc2c1CCC(C)C2 (configuration not stated)	inconclusive: 5.18% [signal inhibitor]	–
CC1=C(C(=O)Nc2cccnc2)C(c2ccc(Cl)cc2)n2nc(SCc3ccccc3)nc2N1 (configuration not stated)	inconclusive: 0.027% [signal inhibitor]	–
COc1ccc(NC(=O)C(=O)NCC(c2cccnc2)N2CCc3ccccc3C2)cc1 (configuration not stated)	inactive: -1.82%	–
O=C(CC1N=C2c3ccccc3N=C(SCc3ccccc3Cl)N2C1=O)NCc1cccs1 (configuration not stated)	inconclusive: 9.71% [signal inhibitor]	–
O=C(c1nc(-c2ccccc2)n(-c2ccccc2)n1)N1CCN(S(=O)(=O)c2ccccc2)CC1	inconclusive: 1.37% [signal inhibitor]	–
COc1ccc(C(=O)NNc2ncnc3c2cnn3-c2ccccc2)cc1	inconclusive: 2.65% [signal inhibitor]	–
COc1ccc2cc1Oc1ccc(cc1)C[C@@H]1c3c(cc(OC)c4c3Oc3cc5c(cc3O4)CCN[C@H]5C2)CCN1C	inactive: -3.74% [at 11.4 µM, scaled: untreated 0%, proteasome inhibitor 100%]	–
